These results are taken from PubChem BioAssay AID1240 (Sanford-Burnham Center for Chemical Genomics, 2008).

About 800 (1.6%) of roughly 50,000 compounds showed an effect of 50% or more. This is one part of the list.

The target in the assay is Bcl-2-like protein 10 (Homo sapiens) (UniProt Q9HD36). As to the kind of experiment: TR3 peptide-Bcl-B binding displacers, biochemical primary FP assay, phenotype converters (AID 1240).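 Also: 0% = Bcl-B with tracer peptide and DMSO and 100% = tracer peptide lacking Bcl-B.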 The conditions noted are these: GST-Bcl-B / FITC-TR3 peptide fluorescence polarization; stronger effect = higher value; compound at 3.75 mg/L. (Fluorescence polarisation rises when a labelled molecule tumbles more slowly, as on binding a larger partner.)
Chain of UniProt Q9HD36 (Q9HD36 whole entry, looked up): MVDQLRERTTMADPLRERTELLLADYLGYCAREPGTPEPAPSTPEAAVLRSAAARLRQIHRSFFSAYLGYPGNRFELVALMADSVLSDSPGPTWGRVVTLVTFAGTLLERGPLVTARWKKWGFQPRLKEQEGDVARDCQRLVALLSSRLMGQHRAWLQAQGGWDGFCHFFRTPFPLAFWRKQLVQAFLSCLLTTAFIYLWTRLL
Regarding `O=C(CCc1ccccc1)Nc1ccc(Nc2ccccc2)cc1`, the displacement is -2.5%. Turning to `CCC1=NN2C(=N)/C(=C/c3ccc(-c4ccc([N+](=O)[O-])cc4Br)o3)C(=O)N=C2S1`, the displacement is 4%.

For `COC(=O)c1sc2nc(-c3ccccc3)nc(N3CCOCC3)c2c1C`, the displacement was 47.3%. Turning to `COc1ccc(C)cc1NC(=O)COc1ccccc1OC`, the displacement is -9.9%. Turning to `COc1ccc(Br)cc1/C=C/C(=O)Nc1ccc2ccccc2c1`, the displacement came out at 11.6%. `CC1CCN(S(=O)(=O)c2cccc3cccnc23)CC1`: the displacement worked out at 5.2%. Consider `Cn1c(-c2ccccc2)cc(O)c(C(=N)c2ccccc2)c1=O`, for which the displacement was -8.7%. On to `CC(=O)Nc1nc(C2CC2)cc(-c2ccco2)c1C#N`, for which the displacement was -10.7%. As to `O=C(/C=C/c1ccc([N+](=O)[O-])cc1)c1ccc(I)cc1`, the displacement is 1.9%.

Regarding `CCOc1ccc2c(c1)-c1c(ssc1=S)C(C)(C)N2C(=O)CSc1nnc(N)s1`, the displacement is 13.3%. With `CC(C)N1CCC(Nc2ccccc2)N1C=O` (stereo not given) the figure was 12.4%; with `NC(=O)c1ccccc1NC(=O)C1CC=CCC1C(=O)O` (stereo not given), -5.1%; with `COc1cc2c(NCc3ccco3)cc(O)c(CC(=O)Nc3ccc(Cl)cc3)c2cc1OC`, 13%.

For the compound `C=CCNC(=S)NC(=O)/C=C/c1ccccc1`, the displacement stood at 13.8%. For the compound `CCOC(=O)C1=C(O)/C(=C/c2ccc(OCC(=O)NCCc3ccccc3)cc2)N=C1C`, the displacement was 1.2%. As for `NC(=O)c1ccccc1NC(=O)c1ccccc1`, the displacement is -2.8%. For the compound `Cc1cccc(NC(=O)CSC(N)=O)c1`, the displacement turned out to be 7.1%. With `O=c1oc(-c2cccs2)nc2cc(Cl)ccc12` the figure was -3.2%; with `CCN(C1=C(Cl)C(=O)N(c2ccccc2)C1=O)c1ccccc1`, 15.2%. In the case of `COC(=O)c1ccccc1N/C=C/C(=O)c1ccc(Br)cc1`, the displacement was -2.6%.

On to `Cc1cccc(N2CCN(S(=O)(=O)c3ccc(Br)cc3)CC2)c1`, for which the displacement was -10%. For the compound `COCCOC(=O)C1=C(C)NC(C)=C(C(=O)OCCOC)C1c1ccc(-c2cccc(Cl)c2)o1`, the displacement came out at 10.3%. Take `Cc1[nH]c(=O)c(C(=O)/C=C/c2ccccc2Cl)c2c1CCCC2`: the displacement came to 11%. `CCOC(=O)CNC1CC(C)(C)NC(C)(C)C1`: the displacement was -1.2%.

In the case of `COc1cc2ccccc2cc1C(=O)Nc1ccc(N2CCOCC2)cc1`, the displacement was 16.8%. With `Cc1ccc(C(C)C)c(OCC(O)Cn2cnc3ccccc32)c1` (stereo not given), the displacement worked out at 1.1%. Consider `COc1ccc(C(=O)Oc2cc(C(=S)N3CCOCC3)ccc2OC)cc1`, for which the displacement worked out at 12.7%. On to `C=CCNC(=O)COc1ccc(Br)c(C)c1`, for which the displacement is -11.2%. `Cc1ccccc1C(=O)Nc1cc(C(N)=O)cc(C(N)=O)c1`: the displacement was -11.5%. As to `Cc1cccc(C)c1NC(=O)CN1C(=O)c2ccccc2C1=O`, the displacement amounted to 2.5%. Take `CCOC(=O)C1=C(C)N=c2s/c(=C\c3ccccc3OC)c(=O)n2C1c1ccc(C)cc1` (stereo not given): the displacement is -2.8%. Turning to `Cc1c(Cl)cccc1-c1ccc(C(=O)Nc2nccs2)o1`, the displacement was 14.7%. Consider `Cc1cc(C)c(NC(=O)COc2ccc(C)cc2Br)c(C)c1`, for which the displacement is -7.2%. With `COC(=O)C1=C(C)N2C(=O)CSC2=NC1c1ccc2c(c1)OCO2` (stereo not given) the figure was -0.6%. For the compound `O=C(CCCOc1ccccc1)NCCc1ccccc1`, the displacement was -7.7%. Regarding `CCOc1ccccc1NC(=O)CN(c1ccc(OC)cc1)S(C)(=O)=O`, the displacement came to 12.7%. With `COc1ccc(/C=C2\SC(=S)N(CCC(=O)OC3CCCCC3)C2=O)cc1` the figure was 4.7%.

As to `CCCN1C/C(=C\c2ccc([N+](=O)[O-])cc2)C(=O)/C(=C/c2ccc([N+](=O)[O-])cc2)C1`, the displacement turned out to be 2.5%.

Take `O=[N+]([O-])c1cccc(C2Nc3ccc(Cl)cc3C3C=CCC32)c1` (stereo not given): the displacement was determined as 13.1%. With `COc1ccccc1NC(=O)c1ccccc1NC(=O)c1ccc(C)cc1`, the displacement was 2.3%. `Cc1cc(Cl)ccc1OCC(=O)Nc1sc2c(c1C(N)=O)CCC(C)C2` (stereo not given): the displacement is 1.2%. Regarding `CN(C)c1ccc(C(=O)N2CCN(Cc3ccccc3)CC2)cc1`, the displacement was found to be 13.5%.

With `Cc1ccc(/C=C2\C(=O)NC(=S)N(c3ccc(Br)cc3C)C2=O)o1`, the displacement was -5.3%.

`Cc1nn(C)c(C)c1NC(=O)c1ccnn1C`: the displacement is 6.5%. As for `COC(=O)c1ccc(/C=C2\SC(=S)N(c3ccc(F)cc3)C2=O)cc1`, the displacement amounted to 7.5%.

Turning to `NC(=O)c1cc2n(n1)C(C(F)(F)F)CC(c1ccco1)N2` (stereo not given), the displacement was 3.4%. Turning to `COc1ccc(NC(=O)COc2ccc3ccccc3c2)cc1Cl`, the displacement is -3.9%. With `CCCCOc1ccc(/C=C(/C#N)c2nc3ccc(C)cc3[nH]2)cc1OC`, the displacement came to 3.6%. Take `CC(=O)c1ccc(N2C(=O)C3C4C=CC(O4)C3C2=O)cc1` (stereo not given): the displacement came to 7.6%. Turning to `CN(C)C1(c2cccs2)CS(=O)(=O)C1`, the displacement came out at 8.9%. With `CC12CCC(C(=O)N(CN3CCCCC3)C1=O)C2(C)C` (stereo not given), the displacement was -6.5%. With `CCn1c2ccccc2c2cc(CN3CCN(C(=O)c4cc(OC)c(OC)c(OC)c4)CC3)ccc21`, the displacement came out at 6.8%. With `CCOc1ccc(NC(=O)c2ccc(C#CC(C)(C)O)cc2)cc1` the figure was -1.7%; with `CCOc1cccc(/C=C2/SC(=S)NC2=O)c1O`, 5.7%; with `COc1cc2c(cc1OC)C(C(Cl)(Cl)Cl)OC(=O)C2` (stereo not given), -4.2%. With `COc1cc(C(=O)Oc2ccc(C(=S)N3CCOCC3)cc2)cc(OC)c1OC` the figure was 10.9%; with `Cc1cc(Cl)ccc1NC(=O)C(=O)NCc1cccnc1`, 12.4%; with `O=[N+]([O-])c1ccc(S(=O)(=O)N2CCSC2c2ccc(Cl)cc2)cc1` (stereo not given), 7.3%. For `O=C(Oc1ccccc1C(=S)N1CCOCC1)c1cccc([N+](=O)[O-])c1`, the displacement came to 10.7%. Regarding `Cc1cccc(NC(=O)c2ccc(C(=O)Nc3cccc(C)n3)cc2)n1`, the displacement was 0.1%.

Consider `CCc1c(C)nc2ccccc2c1SCC(=O)O`, for which the displacement is -4.3%. Consider `COc1ccc(C(=O)CSc2nc(C)cc(=O)[nH]2)cc1`, for which the displacement was found to be 11.4%. For `COC(=O)C1=C(C)NC2=C(C(=O)CC(C)(C)C2)C1c1ccc(OC)cc1OC` (stereo not given), the displacement stood at 11.9%. Regarding `CCOC(=O)C1=C(O)/C(=C/c2ccc(OCC)cc2)SC1=Nc1ccccc1`, the displacement was -19.7%.

For `CN(C)/C=C1\Nc2ccc(Br)c(Cl)c2C1=O`, the displacement is 7.7%. Consider `CCOC(=O)C(CCCCOc1cc(C)cc(C)c1)C(=O)OCC`, for which the displacement turned out to be 9%. As to `O=C(O)Cc1nonc1NCn1nnc2ccccc21`, the displacement amounted to 15.7%.

For the compound `CCC1=NC(c2ccccc2)N(O)C1(C)C` (stereo not given), the displacement was found to be 7.6%. For the compound `O=S(=O)(c1ccc(Oc2ccccc2)cc1)N1CCOCC1`, the displacement was -4.8%.

Turning to `COCCN1C(=O)C(=O)/C(=C(/O)c2ccccc2)C1c1ccc(F)cc1` (stereo not given), the displacement is -20.5%.

As to `O=C(CN1C(=O)c2cccc3cccc1c23)Nc1ccc2c(c1)OCO2`, the displacement was -4.6%. For `CCOC(=O)c1c(-c2ccccc2)csc1NC(=O)c1ccco1`, the displacement is -5.4%. With `COc1cc(C(C2=C(O)CC(C)(C)CC2=O)C2C(=O)CC(C)(C)CC2=O)ccc1OC(C)=O` (stereo not given) the figure was 0.7%; with `Cc1ccccc1C(=O)Nc1sc2c(c1C(=O)N1CCN(Cc3ccccc3)CC1)CCC2`, -9.8%.

As to `COc1ccc(C2CC(=O)C3=C(C2)Nc2ccccc2NC3c2cccc3ccccc23)cc1OC` (stereo not given), the displacement stood at 1.8%.

On to `COc1ccccc1N1C(=O)C2C(C1=O)C1C=CC2C12CC2` (stereo not given), for which the displacement stood at 15.1%. As for `COc1cc(/C=c2\sc3nc4ccccc4n3c2=O)ccc1OCCOc1ccccc1`, the displacement amounted to 11.9%. For `C=CCn1c(Cc2ccccc2)nnc1SCC(O)Cn1c2ccccc2c2ccccc21` (stereo not given), the displacement worked out at 2.8%. With `O=S(=O)(c1ccc(NC(=S)Nc2ccc(F)cc2)cc1)N1CCCC1` the figure was -8.8%; with `CNC(=O)C(=O)Nc1ccc(OC)cc1OC`, 12.8%; with `COc1cccc(NC(=O)/C(NC(=O)c2ccccc2)=C2\c3ccccc3-c3ccc([N+](=O)[O-])cc32)c1`, 12.5%.

`CCn1c2ccccc2c2cc(NS(=O)(=O)c3cccc([N+](=O)[O-])c3)ccc21`: the displacement was -3.6%.

`O=C1NC2=C(C(=O)c3ccccc32)C(c2ccccc2)N1` (stereo not given): the displacement is -6%. Regarding `Cc1nc2ccccc2n1C(=O)N(C)C`, the displacement was found to be 6.1%.

In the case of `COc1ccc(Cl)cc1NC(=O)C1=C(C)NC(=O)NC1c1cccc2ccccc12` (stereo not given), the displacement came to 15.4%.

Take `COc1ccc(-n2c(O)c(/C=C3/C(C)=Nc4ccccc43)c(=O)[nH]c2=O)cc1`: the displacement is -6%. For `COc1cc(C(=O)Nc2ccc(NC(=O)c3cccs3)c(C)c2)cc(OC)c1OC`, the displacement is -0.3%. With `COC(=O)c1ccccc1NC(=O)c1cc(OC(C)=O)cc(C(=O)Nc2ccccc2C(=O)OC)c1` the figure was 10.9%; with `C#CCOc1ccc(/C=C2\C(=O)NC(=O)N(c3ccc(Br)c(C)c3)C2=O)cc1`, -67.8%. In the case of `Cc1ccc(C2Nc3ccc4ncccc4c3C3=C2C(=O)CC(C)(C)C3)cc1` (stereo not given), the displacement came to 5.7%.

For the compound `Cn1c(=O)c2c(nc(NCCOc3ccc(F)cc3)n2C)n(C)c1=O`, the displacement is -2.5%. On to `Nc1ccc(C(=O)Nc2ccccc2C(=O)O)cc1`, for which the displacement was -1.2%. For `Nc1c(C(=O)C2CC2)sc2nc(-c3cccs3)cc(C(F)(F)F)c12`, the displacement came out at 52.1%.

For `COc1ccc(/C(C)=N/NC(=O)c2ccncc2)cc1[N+](=O)[O-]`, the displacement is 2.8%. Take `Cc1nn(-c2ccc(Cl)cc2Cl)c2c1C(=O)CC(C)(C)C2`: the displacement was determined as 14%. As to `CC(c1ccccc1)C1CC(=O)N(c2ccc(I)cc2)C1=O` (stereo not given), the displacement turned out to be 10.3%. With `Cc1onc(-c2ccccc2)c1C(=O)Nc1ccc2c(c1)OCO2` the figure was 4.6%; with `CCOc1cc(/C=C2\SC(N)=NC2=O)cc(Br)c1OS(=O)(=O)c1ccc(C)cc1`, 0.4%. In the case of `Cc1cc(O)c(C(C)C)cc1N1C(=O)c2ccc3c4c(ccc(c24)C1=O)CC3`, the displacement is -16.2%. As to `O=C(CN(c1cccc(Cl)c1)S(=O)(=O)c1ccccc1)Nc1ccccc1Cl`, the displacement is 7.7%. Turning to `CCC1CCc2c(sc(NC(=O)Cc3ccccc3)c2C(=O)OC)C1` (stereo not given), the displacement was found to be 12.5%.

In the case of `Cc1cc(=O)oc2cc(OC(C)C)ccc12`, the displacement is 8.1%. With `Cc1c(Cl)cccc1N1C(=O)C2C3C=CC(C4CC34)C2C1=O` (stereo not given), the displacement was determined as 5.6%. With `CCN1C(=O)N(COC(C)=O)C2C1N(COC(C)=O)C(=O)N2CC` (stereo not given) the figure was -3.3%; with `O=C1c2ccccc2NC(c2c(Cl)cccc2Cl)N1Cc1ccccc1` (stereo not given), 10.9%. Consider `O=C(Nc1nc(-c2ccccc2)cs1)Nc1cccc2ccccc12`, for which the displacement was -12.4%.

On to `Cc1ccc(S(=O)(=O)N2CCN(CC3CC4C=CC3C4)CC2)cc1` (stereo not given), for which the displacement was found to be 11.1%. Consider `COc1ccc(CC(=O)Nc2sc3c(c2C(=O)Nc2ccc(Cl)cc2)CCC3)cc1`, for which the displacement is -2.5%. With `CCOc1ccc(NC(=O)COc2cc(C)c(Cl)c(C)c2)cc1` the figure was 1.1%; with `CCCCOc1ccc(C(=O)Nc2ccccc2-c2nc3ccccc3s2)cc1`, 34.5%.
